# Over roughly 33,000 sequences, “E-score (-0.5 to 0.5)” has its median near -0.011; the highest 2% begin near 0.28. Some of the results follow.
# Molecular target: T1, Gcr1 (UniProt P07261)
# T1 sequence: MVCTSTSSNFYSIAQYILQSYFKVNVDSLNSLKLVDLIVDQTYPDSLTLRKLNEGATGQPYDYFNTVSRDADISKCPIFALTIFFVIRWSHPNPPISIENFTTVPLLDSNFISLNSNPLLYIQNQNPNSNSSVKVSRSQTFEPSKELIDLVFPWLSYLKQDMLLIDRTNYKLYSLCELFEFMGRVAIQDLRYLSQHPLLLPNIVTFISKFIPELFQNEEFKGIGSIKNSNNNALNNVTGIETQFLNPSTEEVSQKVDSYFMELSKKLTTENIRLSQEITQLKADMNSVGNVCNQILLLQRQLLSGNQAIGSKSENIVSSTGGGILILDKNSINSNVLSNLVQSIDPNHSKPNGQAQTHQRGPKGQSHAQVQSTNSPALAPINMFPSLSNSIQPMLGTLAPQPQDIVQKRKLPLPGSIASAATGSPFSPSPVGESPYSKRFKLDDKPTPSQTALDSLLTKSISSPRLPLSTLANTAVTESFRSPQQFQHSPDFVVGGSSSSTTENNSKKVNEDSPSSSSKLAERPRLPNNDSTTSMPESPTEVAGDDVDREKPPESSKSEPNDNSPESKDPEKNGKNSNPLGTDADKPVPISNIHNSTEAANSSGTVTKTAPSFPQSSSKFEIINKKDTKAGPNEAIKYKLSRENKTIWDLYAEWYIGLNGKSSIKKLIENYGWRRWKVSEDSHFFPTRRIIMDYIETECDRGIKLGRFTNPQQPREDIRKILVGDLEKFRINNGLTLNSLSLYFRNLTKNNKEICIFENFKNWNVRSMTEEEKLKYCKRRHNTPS
# Test: PBM E-score (8-mer binding enrichment) (E-score (-0.5 to 0.5)); higher = stronger / more preferred TF binding; most listed sequences are background and not binding sites
# Details: protein concentration: 100 nM; construct: GST-full length
# Procedure: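 Universal 'all 10-mer' protein binding microarrays (Agilent AMADID 015681) probed with GST-tagged S. cerevisiae TFs (full-length or DBD) made by in vitro transcription/translation (PURExpress), about 100-200 nM. Bound TF was detected with fluorescent anti-GST. Each ungapped 8-mer (which stands for itself and its reverse complement) is scored by the PBM enrichment score (E-score), a modified Wilcoxon-Mann-Whitney statistic from -0.5 to +0.5, computed with the Universal PBM Analysis Suite. Scale: above 0.35 generally sequence-specific binding.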
row,Sequence,PBM E-score
1,ATAACTGC,0.138
2,ATTTTCTG,0.162
3,AAGCCCCA,-0.127
4,ACGGAGCT,-0.175
5,ATCTATCG,-0.0256
6,AAAGTCGC,0.019
7,AATCAGAG,0.0956
8,CGATCGGC,0.0893
9,GGACTAAA,-0.16
10,CGTACTGA,-0.133
11,CAAGAGAA,0.0254
12,ACGACGTC,0.11
13,AACAGTAG,-0.00333
14,CGCCCCTA,0.0321
15,CGGACTGA,-0.249
16,GTAACACA,-0.0779
17,AGTCGACC,-0.184
18,GCATCCGA,0.33
19,TACGGCCA,-0.257
20,GCGAGAAC,-0.128
21,CCCGAAGA,-0.168
22,CCAAACGA,0.021

row,Sequence,PBM E-score
1,ATGGGCAG,0.0006
2,ACACCCCG,-0.0915
3,CAATTGAG,0.11
4,CTGCTTGC,-0.112
5,GCCTAGGA,-0.117
6,AACTAACG,-0.0576
7,ACCTGTCT,0.0764
8,ACTTAGCT,0.0537
9,ATCTGTAA,-0.00013
10,CGGCTTTA,-0.157
11,GCCCCGCA,-0.0148
12,ACAGCACA,-0.109
13,ATGAAGCG,-0.2
14,ACCGGTTC,0.0641
15,CATCTAGC,-0.0655
16,CACGTTCC,-0.115
17,AGGTCGCC,0.279
18,AGAGTAGA,0.153
19,CAAACACA,0.0357
20,CAAGCTAG,-0.0469
21,CGCGACGA,-0.12
22,CCATTACC,0.032

row,Sequence,PBM E-score
1,AGATCAGC,0.142
2,ATCTCTTC,-0.0153
3,ACTCGCGC,-0.123
4,CGAAAATA,0.0267
5,GAGAGTTA,-0.0213
6,TGGGTCAA,-0.204
7,CGACGACG,-0.0848
8,CATCCGCA,0.12
9,CTTTATTA,0.123
10,AAACTTAT,0.191
11,AGGCAAGA,0.00064
12,ACTCATGA,-0.224
13,TATATAAA,0.205
14,ACCTCACC,-0.175
15,CATTCTCA,-0.0558
16,GTTGATGA,-0.102
17,CATACGCA,0.0448
18,AGGACGAC,-0.18
19,AATTTATG,0.126
20,CACGGCCG,-0.152
21,GATTTTGA,0.00918
22,TTTCCAAA,0.178

row,Sequence,PBM E-score
1,AGATTACG,-0.00041
2,AGACCTTA,-0.0269
3,TATAATAA,0.204
4,CCAATGGG,-0.0277
5,AAAATACT,0.0897
6,CAAGTCCG,-0.0975
7,AAATATGT,0.211
8,ACAATCGC,-0.128
9,CCCGTAGA,-0.0851
10,ACCACGGT,-0.23
11,AGGTCTAA,-0.138
12,ACATGCCC,-0.194
13,GCACCCCA,0.241
14,ATGAATTG,-0.0932
15,AATCAGGG,-0.113
16,ACGGGACG,-0.0274
17,GTCAGCGA,-0.0329
18,CCCACCAG,0.0742
19,ATGAGTCA,-0.149
20,ATATTCAG,0.0283

# Reference: the supplement of paper PMC3334620
